± gives the uncertainty stated by the source. The sequences are guide strands of siRNAs; only the seed at positions 2 to 7 varies.
Experiments:
[1] = system: HeyA8; test: cell viability relative to lipid-only control; higher = less toxic; details: concentration: 10 nM; 96 h; Homo sapiens
Experimental: (§1)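 Arrayed screen of 4096 siRNA duplexes, each carrying one of all possible 6mer seeds at guide-strand positions 2-7 in a fixed neutral 19mer scaffold (constant flanks: U at position 1, then ACAUGUAAACCA, plus a 3' AA overhang). The passenger strand is 2'-O-methylated at positions 1-2 so only the guide strand loads into RISC. Duplexes were reverse-transfected at 10 nM with RNAiMAX in triplicate in 384-well plates; viability was read by CellTiter-Glo ATP content 96 h after transfection. Values are % viability normalised to lipid-only wells (HeyA8, H460, M565) or to siNT1 (3LL).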

[2] = system: M565; test: as above; details: concentration: 10 nM; 96 h; Mus musculus
Experimental: as §1

[3] = system: H460; test: as above; details: concentration: 10 nM; 96 h; Homo sapiens
Experimental: as §1

[4] = system: 3LL; test: cell viability relative to siNT1 control; HeyA8 human ovarian and H460 human lung cancer; M565 mouse liver and 3LL mouse lung cancer; siNT1 is a non-toxic control siRNA; higher = less toxic; details: concentration: 10 nM; 96 h; Mus musculus;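 further: Luminescence-based viability of cells reverse transfected in 384-well plates with lipid-complexed siRNAs built on a non-toxic 19mer backbone whose passenger strand carries 2′-O-methyl groups at positions 1 and 2, triplicates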
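Wherever cell viability relative to lipid-only control is given: reverse lipid transfection in 384-well plates, in triplicate, of duplexes on a non-toxic 19mer backbone with passenger strand 2′-O-methylated at positions 1 and 2, luminescence viability read-out.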

Row | Sequence | cell viability [1] [%] | cell viability [2] [%] | cell viability [3] [%] | cell viability [4] [%]
1 | UGCUACCACAUGUAAACCAAA | 20.9 ± 0.38 | 5.05 ± 3.6 | 55 ± 4.5 | 55.4 ± 4.8
2 | UGCUCCAACAUGUAAACCAAA | 32.3 ± 3.8 | 48.5 ± 3.4 | 44.2 ± 4.9 | 56.5 ± 11
3 | UCAGAGGACAUGUAAACCAAA | 59.3 ± 3 | 22 ± 1.5 | 40.7 ± 2.9 | 97.4 ± 18
4 | UACUCUAACAUGUAAACCAAA | 97.2 ± 18 | 56.7 ± 13 | 82 ± 26 | 90.5 ± 14
5 | UGGGUUGACAUGUAAACCAAA | 13.2 ± 1.7 | 37.5 ± 10 | 31.3 ± 4.7 | 77.4 ± 4
6 | UCACUGCACAUGUAAACCAAA | 17 ± 2.2 | 28.1 ± 3.7 | 20.1 ± 3.3 | 33.2 ± 7.2
7 | UAGGGGUACAUGUAAACCAAA | 29 ± 3 | 21.3 ± 4.2 | 31.7 ± 2 | 25.4 ± 1.6
8 | UAUUGUGACAUGUAAACCAAA | 90.3 ± 9.2 | 96.1 ± 9.2 | 63.1 ± 3.7 | 105 ± 26
9 | UAGAUCAACAUGUAAACCAAA | 78.6 ± 16 | 54.8 ± 3.3 | 68.3 ± 7.9 | 83.6 ± 7.4
10 | UGAGGGGACAUGUAAACCAAA | 3.68 ± 0.15 | 8.59 ± 2.9 | 27.7 ± 1.8 | 53.4 ± 23
11 | UCUAGUUACAUGUAAACCAAA | 81.3 ± 5.1 | 57.9 ± 6.8 | 57.5 ± 5.8 | 90.8 ± 18
12 | UAACUGAACAUGUAAACCAAA | 79.8 ± 11 | 52.9 ± 11 | 57.9 ± 5.4 | 85.1 ± 13
13 | UCACUUAACAUGUAAACCAAA | 91.5 ± 12 | 74.7 ± 7.2 | 54.7 ± 8.6 | 104 ± 12
14 | UGACGCAACAUGUAAACCAAA | 111 ± 9.8 | 61.8 ± 12 | 86.7 ± 10 | 84.2 ± 12
15 | UGCCUCGACAUGUAAACCAAA | 61.6 ± 2.2 | 48 ± 6.2 | 36.2 ± 4.6 | 89.5 ± 11
16 | UGUUAUCACAUGUAAACCAAA | 50.3 ± 10 | 12.4 ± 4.6 | 36.3 ± 0.45 | 67.3 ± 5.8
17 | UGAUGCAACAUGUAAACCAAA | 36 ± 1 | 32.3 ± 6.4 | 35.8 ± 2.3 | 37.9 ± 7.2
18 | UUUCAGUACAUGUAAACCAAA | 72.5 ± 1.1 | 52.5 ± 6.3 | 50.9 ± 2.5 | 75.4 ± 6.9
19 | UCUGUGCACAUGUAAACCAAA | 67.7 ± 3.1 | 32.2 ± 7.6 | 38.8 ± 8.4 | 81 ± 9.4
20 | UAUUACAACAUGUAAACCAAA | 99.8 ± 16 | 97.9 ± 20 | 64.4 ± 6.1 | 98.3 ± 17
21 | UAUAAGCACAUGUAAACCAAA | 86.1 ± 13 | 91.3 ± 12 | 55.9 ± 7.8 | 48.6 ± 6.8
22 | UUUGCUAACAUGUAAACCAAA | 94.6 ± 1.4 | 118 ± 5.4 | 84.2 ± 3.8 | 101 ± 13
23 | UGUUACUACAUGUAAACCAAA | 16.5 ± 1.1 | 40.9 ± 10 | 38.6 ± 4 | 95 ± 6
24 | UCUGGGGACAUGUAAACCAAA | 10.9 ± 1.5 | 25.6 ± 0.74 | 21.8 ± 4.6 | 33.8 ± 1.2
25 | UGUCGUCACAUGUAAACCAAA | 29.1 ± 5 | 17.2 ± 8 | 53 ± 14 | 27 ± 8.8
26 | UUUUCAGACAUGUAAACCAAA | 86.8 ± 2.2 | 84.2 ± 5.4 | 79.3 ± 18 | 97.1 ± 9.5
27 | UUAGUUUACAUGUAAACCAAA | 87.8 ± 5.9 | 104 ± 12 | 75.4 ± 11 | 101 ± 6.4
28 | UAAUACCACAUGUAAACCAAA | 61.6 ± 5.8 | 71.1 ± 3.2 | 75 ± 3.4 | 36 ± 2.4

— the supplement of paper PMC6206098
